Test results reported in PubChem BioAssay AID504332 (National Center for Advancing Translational Sciences (NCATS), 2011).
Out of some 350,000 compounds screened, about 31,000 (8.9%) were called active. The shares of active, inactive and inconclusive entries below differ from those in the screen. Calls come from the whole dose curve; as a rule, active = well fitted inhibition curve with a large enough effect; inconclusive = small, poorly fitted or top-dose-only effect; inactive = no such curve, though single readings can be large or run the other way. Where the call is inconclusive, the potency comes from a doubtful curve fit. Some compounds were tested as several samples or in several runs, with calls that do not always agree.

target: Histone-lysine N-methyltransferase EHMT2 (Homo sapiens) (UniProt Q96KQ7); assay: qHTS Assay for Inhibitors of Histone Lysine Methyltransferase G9a; conditions: G9a H3K9 monomethylation, AlphaScreen, 2 h; activity, negative = inhibition: at 59 µM (top of the series) unless noted; note: nearly all actives have a fitted effect of over 75% in size
UniProt Q96KQ7, sequence (Q96KQ7 whole entry, looked up): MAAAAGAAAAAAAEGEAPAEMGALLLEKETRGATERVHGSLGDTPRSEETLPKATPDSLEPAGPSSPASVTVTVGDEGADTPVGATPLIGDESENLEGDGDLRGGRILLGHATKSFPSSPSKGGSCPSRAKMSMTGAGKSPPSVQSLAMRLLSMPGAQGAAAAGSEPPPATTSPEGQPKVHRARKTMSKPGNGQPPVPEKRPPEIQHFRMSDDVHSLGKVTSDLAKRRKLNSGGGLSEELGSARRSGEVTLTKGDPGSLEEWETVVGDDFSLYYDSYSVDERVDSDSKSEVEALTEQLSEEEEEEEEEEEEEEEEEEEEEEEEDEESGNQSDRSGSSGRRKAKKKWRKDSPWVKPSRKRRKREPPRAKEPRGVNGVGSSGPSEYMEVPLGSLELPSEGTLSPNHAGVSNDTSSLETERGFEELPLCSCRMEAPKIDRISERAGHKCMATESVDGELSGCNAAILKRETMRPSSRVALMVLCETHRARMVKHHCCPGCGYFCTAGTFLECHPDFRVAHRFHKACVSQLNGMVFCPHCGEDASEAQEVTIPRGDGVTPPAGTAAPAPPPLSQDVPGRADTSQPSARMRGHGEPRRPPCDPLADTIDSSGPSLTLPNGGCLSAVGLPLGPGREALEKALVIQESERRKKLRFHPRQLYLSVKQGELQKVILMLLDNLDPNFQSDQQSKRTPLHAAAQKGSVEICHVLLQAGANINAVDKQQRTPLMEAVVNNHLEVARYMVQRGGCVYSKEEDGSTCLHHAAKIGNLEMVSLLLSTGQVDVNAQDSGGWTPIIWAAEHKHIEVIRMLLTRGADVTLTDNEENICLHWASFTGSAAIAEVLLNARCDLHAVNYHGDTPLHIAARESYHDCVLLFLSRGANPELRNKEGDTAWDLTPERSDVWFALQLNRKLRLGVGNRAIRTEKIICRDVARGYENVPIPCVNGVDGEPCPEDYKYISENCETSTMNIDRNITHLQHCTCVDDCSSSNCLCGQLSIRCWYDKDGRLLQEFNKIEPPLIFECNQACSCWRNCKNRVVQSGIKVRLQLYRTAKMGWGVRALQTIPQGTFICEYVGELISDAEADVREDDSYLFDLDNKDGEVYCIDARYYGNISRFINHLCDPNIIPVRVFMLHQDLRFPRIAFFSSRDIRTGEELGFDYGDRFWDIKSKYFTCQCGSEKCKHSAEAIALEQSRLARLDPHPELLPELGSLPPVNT
Outline: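 Chemiluminescent proximity detection of H3K9 monomethylation, read after 10 min bead incubation in the dark. Reaction: 20 nM G9a, 500 nM biotin-H3K9 peptide, 20 uM SAM cofactor, 2 h, room temperature, following 15 min enzyme-compound preincubation.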
% is set by controls: 0 for no effect and ±100 for the full control effect; potency is the fitted concentration of half-maximal effect; tags give direction and shape of the fitted curve.

| SMILES | Potency | activity, negative = inhibition |
| --- | --- | --- |
| Cc1cc([N+](=O)[O-])ccc1NCc1cccc([N+](=O)[O-])c1 | inconclusive: 2.82 µM [inhibitor, full curve, poor fit] | – |
| Cc1ccc(C2C(C#N)=C(N)Oc3n[nH]c(-c4cccs4)c32)s1 (stereo unspecified) | active: 50.1 µM | – |
| CC1CC(C)CN(CCCCOc2ccc([N+](=O)[O-])cc2)C1 (stereo unspecified) | inconclusive: 10 µM [inhibitor, partial curve, poor fit] | – |
| C=CCSc1nc2sc3c(c2c(=O)n1CC)CCc1ccccc1-3 | inconclusive: 0.794 µM [inhibitor, full curve, poor fit] | – |
| CC(C)(C)c1ccc(S(=O)(=O)N2CCN(C(=O)c3ccc4c(c3)C(=O)N(Cc3ccncc3)C4=O)CC2)cc1 | inactive | – |
| CCOC(=O)Cc1cc(=O)n2[nH]c(-c3ccccc3)cc2n1 | inconclusive: 0.891 µM [inhibitor, partial curve, poor fit] | – |
| Cc1cc2cc(C(c3nnnn3C3CCCC3)N(Cc3cccnc3)Cc3ccco3)c(=O)[nH]c2cc1C (stereo unspecified) | inconclusive: 28.2 µM [inhibitor, single point] | – |
| CCN(CC)c1ccc(NC(=O)CSc2nnc3nc(C)cc(C)n23)cc1 | – | inactive: -45.2% [at 12.7 µM] |
| Cc1ccc2nc(CCl)[n+]([O-])c(-c3ccccc3)c2c1 | inconclusive: 2.51 µM [inhibitor, single point] | – |
| CCOc1ccc(S(=O)(=O)Nc2ncn[nH]2)cc1 | inactive | – |
| COc1ccc(C=O)cc1Cn1c(C)cc(C)c(C#N)c1=O | inconclusive: 1.26 µM [inhibitor, partial curve, poor fit] | – |
| O=C(c1cccs1)N1CCCc2cc(NS(=O)(=O)c3ccc(F)cc3F)ccc21 | inactive | – |
| CCN(C)C(=O)Oc1cccc([C@H](C)N(C)C)c1 | – | inactive: -0.669% [at 12.7 µM] |
| Cc1[nH]n2c(=O)cc(C(C)(C)C)nc2c1-c1ccccc1 | inactive | – |
| COc1cc(Cl)cc2c1Sc1ccccc1/C2=C/CCN(C)C | inconclusive: 31.6 µM [inhibitor, partial curve, poor fit] | – |
| O=C(O)c1cc(NN=C2c3ccccc3-c3ccccc32)ccc1Cl | active: 44.7 µM | – |
| CCOC(=O)c1ccc(S(=O)(=O)N2CCN(CC3CC=CCC3)CC2)cc1 (stereo unspecified) | inactive | – |
| Cc1cccc(NS(=O)(=O)c2ccc3c(c2)CCN3C(=O)C2CCC2)c1 | inactive | – |
| CN(C)S(=O)(=O)c1cccc(NC(=O)C2Cc3ccccc3CN2C(=O)c2ccco2)c1 (stereo unspecified) | inconclusive: 89.1 µM [inhibitor, single point] | – |
| COC(=O)C1CCN(S(=O)(=O)c2cc3c4c(c2)CC(=O)N4CCC3)CC1 | inactive | – |
| Cc1ccc(C(=O)n2c(=S)nc3ccccn32)cc1 | active: 25.1 µM | – |
| COc1cccc2cc(C(=O)NNC(=O)c3ccc(Br)cc3)c(=O)oc12 | active: 44.7 µM | – |
| COc1cccc(C(=O)NC(=S)Nc2ccccc2N2CCCC2)c1 | – | inactive: 2.8% [at 12.7 µM] |
| CCOC(=O)C1CCN(C(=O)c2ccccc2NS(=O)(=O)c2ccc(C)cc2)CC1 | inconclusive: 39.8 µM [inhibitor, partial curve, poor fit] | – |

| SMILES | Potency | activity, negative = inhibition |
| --- | --- | --- |
| O=c1cc(CO)oc(CN2CCCC2)c1O | active: 44.7 µM | – |
| Cc1ccc(C)c(N2CCN(Cc3csc(C)c3)CC2)c1 | inconclusive: 39.8 µM [inhibitor, partial curve, poor fit] | – |
| Cc1cc(C)n(-c2nc3ccccc3nc2NCCc2ccccc2)n1 | inactive | – |
| CCOCCCn1c(=N)c(C(=O)NCC2CCCO2)cc2c(=O)n3cccc(C)c3nc21 (stereo unspecified) | inconclusive: 11.2 µM [inhibitor, partial curve, poor fit] | – |
| Cc1ccc2c(c1)N(Cc1ccc([N+](=O)[O-])cc1)C=NS2(=O)=O | inconclusive: 0.282 µM [inhibitor, partial curve, poor fit] | – |
| O=[N+]([O-])c1ccc(O)c(-c2nn[nH]n2)c1 | inconclusive: 1 µM [inhibitor, full curve, poor fit] | – |
| CC(C)(C)N(Cc1ccccc1)C(=O)CSc1nnc(CNc2ccc(F)cc2)o1 | inconclusive: 25.1 µM [inhibitor, single point] | – |
| CC1CC(C)(C)CC2(C1)NC(=O)N(CC(=O)NC1CCCc3ccccc31)C2=O (stereo unspecified) | inactive | – |
| CCOC(=O)c1c(N)sc2c1CCCC2 | inconclusive: 22.4 µM [inhibitor, single point] | – |
| CC(=O)NS(=O)(=O)c1cccnc1Nc1ccc(Cl)c(Cl)c1 | inconclusive: 70.8 µM [inhibitor, partial curve, poor fit] | – |
| O=C(c1ccc(C(F)(F)F)cc1)N1CCC(=O)N(C(COCc2ccc(C(F)(F)F)cc2)Cc2ccccc2)CC1 (stereo unspecified) | active: 44.7 µM | – |
| COc1ccc(/C=C/C(=O)NC(=S)Nc2cc([N+](=O)[O-])ccc2O)cc1OC | active: 28.2 µM | – |
| COC(=O)c1ccc(-c2ccco2)n1Cc1nc(-c2ccc(OC)c(OC)c2)oc1C | inconclusive: 3.55 µM [inhibitor, single point] | – |
| Cc1ccc(-n2nnnc2C(Cl)(Cl)c2nnnn2-c2ccc(C)cc2)cc1 | inconclusive: 1.78 µM [inhibitor, full curve, poor fit] | – |
| O=C(NCc1ccccn1)/C(=C/c1ccco1)NC(=O)c1ccccc1 | inactive | – |
| NNC(=O)c1ccc(CSc2nc3ccccc3s2)cc1 | inconclusive: 12.6 µM [inhibitor, full curve, poor fit] | – |
| Cc1ccc(C)c(NC(=O)Nc2ccc3c(c2)OCO3)c1 | – | inactive: 5.19% [at 12.7 µM] |
| CCCN1CCc2nc(N3CCN(c4ncccn4)CC3)ncc2C1 | active: 31.6 µM | – |
| C/C(=N\Nc1cccc(Cl)c1)c1ccncc1 | inconclusive: 39.8 µM [inhibitor, full curve, poor fit] | – |
| N#C/C(=C/c1cccc([N+](=O)[O-])c1)C(=O)Nc1ccccc1O | inconclusive: 79.4 µM [inhibitor, partial curve, poor fit] | – |
| CCC(=O)Nc1ccc(Nc2ccccc2)cc1 | active: 50.1 µM | – |
| O=c1[nH]cc(NCCNc2ncc(C(F)(F)F)cc2Cl)c(=O)[nH]1 | inconclusive: 39.8 µM [inhibitor, full curve] | – |
| CC(C)CCC(C)N=Cc1c(O)n(Cc2ccccc2)c(=O)c2ccccc12 (stereo unspecified) | inconclusive: 28.2 µM [inhibitor, single point] | – |
| O=[N+]([O-])c1ccc(C(=S)N2CCC(Cc3ccccc3)CC2)cc1 | inconclusive: 28.2 µM [inhibitor, single point] | – |

| SMILES | Potency | activity, negative = inhibition |
| --- | --- | --- |
| S=C(NCc1ccco1)Nc1ccc(Br)cn1 | inactive | – |
| CCC(CC)C(=O)Nc1nnc(-c2cccs2)s1 | active: 15.8 µM | – |
| CC(C)(C)NC(=O)CCn1nc(-c2ccc(Cl)cc2)c2ccccc2c1=O | inconclusive: 89.1 µM [inhibitor, single point] | – |
| Cc1sc(NC(=O)Cc2ccc3c(c2)OCO3)nc1-c1ccc2c(c1)CCN2C(=O)c1ccc(F)cc1 | active: 39.8 µM | – |
| N#Cc1ccsc1NC(=O)C1CCN(C(=O)c2ccc(Cl)cc2)CC1 | active: 50.1 µM | – |
| COc1ccc(S(=O)(=O)Nc2cc3c4c(c2)CCN4C(=O)CC3)cc1C | inconclusive: 89.1 µM [inhibitor, partial curve, poor fit] | – |
| O=C(c1ccc(Cl)c([N+](=O)[O-])c1)N1CCCc2ccccc21 | inconclusive: 89.1 µM [inhibitor, single point] | – |
| CN(C)c1ccc(N=Nc2ccc(C(=O)O)cc2)cc1 | active: 10 µM | – |
| CN(C)Cc1nc2c(c(=O)[nH]1)C(C)(C)Cc1ccccc1-2 | inconclusive: 31.6 µM [inhibitor, partial curve, poor fit] | – |
| Cc1c(NC(NC(=O)CC(C)C)C(Cl)(Cl)Cl)c(=O)n(-c2ccccc2)n1C (stereo unspecified) | inactive | – |
| c1coc(Cn2nnnc2CN2CCN(C3CCCC3)CC2)c1 | – | inconclusive: -78.2% [inhibitor] |
| COC(=O)CNC(=O)CN1C(=O)NC2(CCCc3ccccc32)C1=O (stereo unspecified) | – | inactive: 15.2% [at 2.33 µM] |
| CC(CCc1ccccc1)NC(=O)c1cc2sccc2n1C (stereo unspecified) | inconclusive: 44.7 µM [inhibitor, partial curve] | – |
| Cc1ccc(C(=O)n2cnnc2N)cc1C | inconclusive: 12.6 µM [inhibitor, partial curve] | – |
| O=C(CN1CCCN(Cc2ccc(F)cc2)S1(=O)=O)NCc1ccccc1Cl | inconclusive: 3.98 µM [inhibitor, partial curve, poor fit] | – |
| COC(=O)CCCCC1SCC(NC(=O)c2ccccc2)C1OC(C)=O (stereo unspecified) | inconclusive: 100 µM [inhibitor, partial curve, poor fit] | – |
| Cc1ccc(Nc2nnc(SCC(=O)Nc3cc(C(=O)O)ccc3C)s2)c(C)c1 | inconclusive: 89.1 µM [inhibitor, single point] | – |
| O=C(CSCc1c(Cl)cccc1Cl)NCc1ccco1 | inconclusive: 39.8 µM [inhibitor, single point] | – |
| C=CCn1c(SCc2c(C(=O)OC)sc(N)c2C(=O)OC)nnc1-c1ccc(Br)cc1 | inconclusive: 89.1 µM [inhibitor, single point] | – |
| COc1cccc2c1Oc1ncccc1N(C(=O)CCC(=O)NCc1ccc(C)cc1)C2 | active: 5.62 µM | – |
| CCOc1ccc(-n2c(Cc3cc(=O)[nH]c(=O)[nH]3)nnc2SCc2cccnc2)cc1 | active: 56.2 µM | – |
| CC(=O)N1CCOc2cc(S(=O)(=O)N(C)Cc3ccccc3)c(Cl)cc21 | inactive | – |
| CC(C)C(=O)Nc1nnc(SCC(=O)NCc2cccs2)s1 | – | inconclusive: -67% [inhibitor] [at 12.7 µM] |
